# Source: PubChem BioAssay AID1851 (National Center for Advancing Translational Sciences (NCATS), 2009)
# The list shows a part of the results, in another mix than the full data. Results filed as inconclusive are left out. The source made the active and inactive calls. The call rests on the fitted dose curve; in most records, active means well fitted curve in the direction sought with a large enough effect; inconclusive means small, poorly fitted or top-dose-only effect, or effect the other way; inactive means no such curve, though single readings can be large or run the other way.
# Molecular target: Cytochrome P450 2D6 (Homo sapiens) (UniProt P10635)
# Assay: Cytochrome panel assay with activity outcomes
# Conditions: recombinant CYP, pro-luciferin dealkylation, luminescence, p450-cyp2d6
# On the % scale 0 is the no-effect control and ±100 the full control effect.
# UniProt P10635, sequence (P10635 whole entry, looked up): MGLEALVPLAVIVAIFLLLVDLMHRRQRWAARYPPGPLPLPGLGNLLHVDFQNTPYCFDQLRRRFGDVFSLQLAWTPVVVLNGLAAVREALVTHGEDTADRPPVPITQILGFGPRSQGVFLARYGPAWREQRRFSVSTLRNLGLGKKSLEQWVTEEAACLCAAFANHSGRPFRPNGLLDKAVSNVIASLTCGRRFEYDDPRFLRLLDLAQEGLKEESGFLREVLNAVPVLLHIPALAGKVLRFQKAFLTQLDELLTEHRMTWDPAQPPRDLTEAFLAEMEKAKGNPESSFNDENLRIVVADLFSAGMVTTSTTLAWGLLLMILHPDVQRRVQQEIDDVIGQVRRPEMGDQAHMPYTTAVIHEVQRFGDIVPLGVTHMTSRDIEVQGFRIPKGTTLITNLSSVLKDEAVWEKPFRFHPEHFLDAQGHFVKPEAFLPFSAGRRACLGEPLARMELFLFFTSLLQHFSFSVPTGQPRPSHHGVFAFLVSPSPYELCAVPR
compound,measurement,setting,value
CN1[C@@H]2CC[C@H]1CC(OC(=O)[C@@H](O)c1ccccc1)C2 (some centres not stated),"activity, negative = inhibition",at 11.4 µM (top of the series),inactive: 4.09%
same,"activity, negative = inhibition",at 25.6 µM (top of the series),inactive: -4.37%
